# Experimental data from PubChem BioAssay (NCATS).
# This list was built around the results that the source calls inconclusive (neither active nor inactive); the mix of calls is not that of the screen. No potency is given beside an inconclusive call; the fits are too rough. The source made the active and inactive calls. Calls follow the shape of the dose curve; as a rule, active = well fitted curve in the direction sought with a large enough effect; inconclusive = small, poorly fitted or top-dose-only effect, or another doubt; inactive = no such curve, though single readings can be large; an effect the other way counts as inactive or inconclusive.
# How the values were obtained:
# [1] = target: Aldehyde dehydrogenase, mitochondrial (Homo sapiens) (UniProt P05091); assay: qHTS for Inhibitors of the Aldehyde Dehydrogenase Family (ALDH2) Primary screen (AID 2061308); also: nearly all actives have a fitted effect of over 55% in size
# [2] = target: Retinaldehyde dehydrogenase 3 (Homo sapiens) (UniProt P47895); assay: qHTS for Inhibitors of the Aldehyde Dehydrogenase Family (ALDH1A3) Validation screen (AID 2061312); settings: ALDH1A3 enzyme inhibition qHTS validation, fluorescence; activity change, negative = inhibition: at 84.7 µM (top of the series); also: nearly all actives have a fitted effect of over 45% in size
# [3] = target: Retinaldehyde dehydrogenase 3 (Homo sapiens) (UniProt P47895); assay: qHTS for Inhibitors of the Aldehyde Dehydrogenase Family (ALDH1A3) Confirmatory screens (AID 2061311); settings: activity change, negative = inhibition: at 46 µM (top of the series); also: nearly all actives have a fitted effect of over 60% in size
# [4] = target: Retinal dehydrogenase 2 (Homo sapiens) (UniProt O94788); assay: qHTS for Inhibitors of the Aldehyde Dehydrogenase Family (ALDH1A2) Confirmation screens (AID 2061314); settings: activity, negative = inhibition: at 45.9 µM (top of the series) unless noted; also: nearly all actives have a fitted effect of over 65% in size
# [5] = target: Retinaldehyde dehydrogenase 3 (Homo sapiens) (UniProt P47895); assay: qHTS for Inhibitors of the Aldehyde Dehydrogenase Family (ALDH1A3) Primary screen (AID 2061315); settings: ALDH inhibition qHTS; activity change, negative = inhibition: at 56 µM (top of the series) unless noted
# [6] = target: Aldehyde dehydrogenase 1A1 (Homo sapiens) (UniProt P00352); assay: qHTS for Inhibitors of the Aldehyde Dehydrogenase Family (ALDH1A1) Confirmatory screens (AID 2061316); settings: activity change, negative = inhibition: at 47.3 µM (top of the series); also: nearly all actives have a fitted effect of over 65% in size
# [7] = BET inhibitor-based combinations targeting novel dependencies in MECOM-rearranged (r) AML: SET-2 cell line (AID 2202231); settings: SET-2 AML cells viability, CellTiter-Glo luminescence, 48 h; viability: hits give low values, concentration not given here; also: nearly all actives have a fitted effect of over 35% in size
# How it was run: (§1)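 500 cells/well; 11-pt dose curve; 48 h, standard incubator; CellTiter-Glo luminescence after 15 min RT; DMSO/empty-well normalization; AUC plus Z-AUC (mean-centered within each line).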
# [8] = BET inhibitor-based combinations targeting novel dependencies in MECOM-rearranged (r) AML: MV-4-11 cell line (AID 2202233); settings: MV-4-11 AML viability, CellTiter-Glo luminescence, 48 h; series mostly up to 46 µM; also: nearly all actives have a fitted effect of over 45% in size
# How it was run: (§2)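 Cells were plated at 500 per well and exposed to each drug across an 11-point dose range for 48 hr at standard incubator conditions. Viability was read by CellTiter-Glo luminescence, and activity was expressed as AUC and per-cell-line Z-transformed AUC.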
# [9] = BET inhibitor-based combinations targeting novel dependencies in MECOM-rearranged (r) AML: HNT-34 cell line (AID 2202234); also: nearly all actives have a fitted effect of over 35% in size
# How it was run: as §2
# [10] = BET inhibitor-based combinations targeting novel dependencies in MECOM-rearranged (r) AML: AML-191 cell line (AID 2202236; also: nearly all actives have a fitted effect of over 35% in size)
# How it was run: as §1
# Potency is read from the fitted curve at half-maximal effect; tags tell the direction and shape of the fitted curve.
smiles,measurement,setting,value
O=C(CSc1nnc(-c2cccc([S+](=O)([O-])N3CCCC3)c2)n1-c1ccccc1)Nc1ccc(Br)cc1,Potency,[1],"inconclusive [inhibitor, partial curve]"
COc1ccc(Nc2nc(C#N)nc(NC3CCCC3)n2)cc1,Potency,[1],inactive
Cc1ccc(C)c(SC2=N[S+](=O)([O-])c3cc(C(=O)Nc4ccc5ncccc5c4)ccc32)c1,Potency,[1],"inconclusive [inhibitor, partial curve, poor fit]"
O=C(c1ccccc1)N(C(=O)c1ccccc1)c1ncnc2c1C(c1ccccc1)c1c(ccc3ccccc13)O2 (centres undefined),Potency,[1],inactive
COc1ccc(C(=O)NCC(=O)OC(C(=O)Nc2cc(C(F)(F)F)ccc2Cl)c2ccccc2)cc1OC (centres undefined),Potency,[1],inactive
Cn1ncc2ccc(-c3ccc4ncnc(NCc5cccs5)c4c3)cc21,Potency,[1],"inconclusive [inhibitor, partial curve, poor fit]"
Nc1ccccc1C(=O)NCc1ccco1,Potency,[1],"inconclusive [inhibitor, partial curve, poor fit]"
COc1ccc2cc(C(C)C(=O)Oc3ccc(C(N)=S)cc3)ccc2c1 (centres undefined),Potency,[1],"inconclusive [inhibitor, single point]"
Cc1ccc(NS(=O)(=O)c2cc3c(cc2-c2cn[nH]c2)NC(=O)CO3)cc1C,Potency,[1],inactive
Cc1ccc(C)c(OCCn2c(CCNC(=O)C3CCCCC3)nc3ccccc32)c1,Potency,[1],"inconclusive [inhibitor, single point]"
CC(=O)OC[C@@]12C(=O)C[C@@H](C)[C@]3(C[C@@H](c4ccoc4)O[C@H]3OC(C)=O)[C@H]1CCC[C@]21CO1,Potency,[1],"inconclusive [inhibitor, full curve, poor fit]"
C=C1C(=O)O[C@@H]2[C@H]1CCC(C)=C1CCC(=O)O[C@]12C,Potency,[1],inactive
COc1ccc2ncnc(NCc3cccs3)c2c1-c1ccc2c(c1)OCO2,Potency,[1],"inconclusive [inhibitor, partial curve, poor fit]"
O=c1c2ccccc2nc2sc(NCc3ccc([S+](=O)([O-])c4ccccc4)cc3)nn12,Potency,[1],"inconclusive [inhibitor, partial curve, poor fit]"
CCCc1cc2c(N3CCN(C4=NCC(C)(C)S4)CC3)ncnc2s1,Potency,[1],"inconclusive [inhibitor, single point]"
same,Potency,[2],"inconclusive [inhibitor, full curve, poor fit]"
CCc1nn(CCO)c(CC)c1Oc1cc(C#N)cc(C#N)c1,Potency,[1],inactive
same,Potency,[2],"inconclusive [inhibitor, partial curve]"
CN(C)C(=O)Nc1cc(-c2ccccc2)ccc1N(C)C,Potency,[1],"inconclusive [inhibitor, single point]"
same,Potency,[3],"inconclusive [inhibitor, partial curve]"
same,Potency,[4],"inconclusive [inhibitor, partial curve]"
same,Potency,[5],active: 28.2 µM
same,Potency,[6],"inconclusive [inhibitor, partial curve, poor fit]"
Cc1c(NC(=O)N2CCOCC2)ccc2c1c1ccccc1n2C(C)C,Potency,[1],inactive
same,Potency,[2],inactive
CC(C)c1ccc(-c2cc(=O)c3ccccc3o2)cc1,Potency,[1],inactive
same,Potency,[2],inactive
O=c1cc(NCCCN[C@@H]2CCOc3c(Br)cc(Br)cc32)[nH]c2ccsc12,Potency,[1],"inconclusive [inhibitor, single point]"
same,Potency,[2],"inconclusive [inhibitor, partial curve, poor fit]"
O=C(Nc1c(-c2cccs2)nc2ccccn12)c1ccc(Cl)cc1,Potency,[1],inactive
same,Potency,[2],"inconclusive [inhibitor, partial curve, poor fit]"
N=C(N)c1ccc2nc(-c3cc(CC(=O)NC(CC(=O)O)C(=O)O)cc(-c4cc(S(N)(=O)=O)ccc4O)c3O)[nH]c2c1 (centres undefined),Potency,[1],inactive
same,Potency,[2],inactive
C[C@@H]1CCC/C=C/[C@H]2CC(=O)C[C@@H]2[C@@H](O)/C=C/C(=O)O1,Potency,[1],inactive
COc1ccc(OC)c(-c2ccc(NC(=O)c3ccncc3F)cc2)c1,Potency,[1],"inconclusive [inhibitor, partial curve, poor fit]"
same,Potency,[2],"inconclusive [inhibitor, full curve]"
Cc1ccc(F)cc1S(=O)(=O)N[C@@H]1CCN(Cc2ccc(OC(C)C)cc2)C1,Potency,[1],inactive
same,Potency,[2],"inconclusive [inhibitor, full curve, poor fit]"
O=c1cc(CN2CCOCC2)occ1OCCCCCSc1ccnc2cc(C(F)(F)F)ccc12,Potency,[1],"inconclusive [inhibitor, single point]"
same,Potency,[3],inactive
same,Potency,[6],"inconclusive [inhibitor, single point]"
same,Potency,[7],"inconclusive [inhibitor, partial curve]"
same,Potency,[8],"inconclusive [inhibitor, partial curve]"
same,Potency,[9],"inconclusive [inhibitor, partial curve]"
same,Potency,[10],"inconclusive [inhibitor, partial curve]"
O=C1Nc2ccccc2/C1=C\c1cc(F)c(O)c(F)c1,Potency,[1],active: 1.12 µM
same,Potency,[3],active: 3.16 µM
same,Potency,[4],active: 5.62 µM
same,Potency,[5],"inconclusive [inhibitor, partial curve, poor fit]"
same,Potency,[6],active: 8.96 µM
COc1ccc(-c2csc(N3CCC(C(N)=O)CC3)n2)cc1,Potency,[1],inactive
same,Potency,[3],inactive
same,Potency,[4],inactive
same,Potency,[6],inactive
CCOc1nc2cccc(C(=O)OCc3oc(=O)oc3C)c2n1Cc1ccc(-c2ccccc2-c2noc(O)n2)cc1,Potency,[1],"inconclusive [inhibitor, partial curve, poor fit]"
same,Potency,[2],inactive
CC(C)(Cc1nc(-c2ccc(O)cn2)no1)C(=O)NC1=C(C(=O)O)CCCC1,Potency,[1],"inconclusive [inhibitor, single point]"
same,Potency,[2],"inconclusive [inhibitor, single point]"
COc1cccc(OC)c1-c1cc(C(=O)N[C@@H](CC(C)C)C(=O)O)nn1-c1ccnc2cc(Cl)ccc12,Potency,[1],"inconclusive [inhibitor, single point]"
same,Potency,[2],"inconclusive [inhibitor, full curve, poor fit]"
Fc1c(-c2ccc3ncnc(NCc4cccs4)c3c2)ccc2c1OCO2,Potency,[1],"inconclusive [inhibitor, full curve]"
same,Potency,[3],inactive
same,Potency,[6],inactive
C[C@@H]1O[C@@H](O[C@H]2[C@H](O[C@H]3[C@H](O[C@H]4CC[C@@]5(C)C(CC[C@]6(C)C5CC=C5[C@@H]7CC(C)(C)CC(=O)[C@]7(C)CC[C@]56C)[C@@]4(C)CO)O[C@H](C(=O)O)[C@@H](O)[C@@H]3O)O[C@H](CO)[C@H](O)[C@@H]2O)[C@H](O)[C@H](O)[C@H]1O (some centres undefined),Potency,[1],"inconclusive [inhibitor, single point]"
CCC(CC)C(=O)Nc1sc2c(c1C#N)CCC(C(C)(C)CC)C2 (centres undefined),Potency,[1],inactive
same,Potency,[2],"inconclusive [inhibitor, partial curve, poor fit]"
NC1(c2ccc(NC(=O)c3ccnc(-c4cc(C(=O)O)ccn4)c3)cc2)CC1,Potency,[1],inactive
same,Potency,[3],"inconclusive [inhibitor, partial curve]"
same,Potency,[4],"inconclusive [inhibitor, full curve]"
same,Potency,[6],"inconclusive [inhibitor, partial curve]"
COc1ccc(-c2cc3onc(-c4ccncc4)c3c(=O)n2C)cc1,Potency,[1],"inconclusive [inhibitor, single point]"
same,Potency,[3],"inconclusive [inhibitor, partial curve, poor fit]"
same,Potency,[2],"inconclusive [inhibitor, full curve, poor fit]"
same,Potency,[4],"inconclusive [inhibitor, partial curve, poor fit]"
same,Potency,[6],inactive
N=c1c2c(ccn1CCCCc1ccccc1)Oc1ccc3ccccc3c1C2c1ccccc1 (centres undefined),Potency,[1],inactive
O=C(Cc1ccccc1)Nc1ncnc2c1C(c1ccccc1)c1c(ccc3ccccc13)O2 (centres undefined),Potency,[1],inactive
Cc1ccc(Cl)cc1N(CC(=O)Nc1c(F)cccc1F)S(C)(=O)=O,Potency,[1],inactive
same,Potency,[2],inactive
Cc1ccc(OCCn2c(CCNC(=O)c3ccccc3[N+](=O)[O-])nc3ccccc32)cc1,Potency,[1],"inconclusive [inhibitor, partial curve, poor fit]"
same,Potency,[3],inactive
same,Potency,[6],"inconclusive [inhibitor, partial curve, poor fit]"
[O-][n+]1onc(-c2ccccc2)c1CO,Potency,[1],"inconclusive [inhibitor, partial curve]"
same,Potency,[3],"inconclusive [inhibitor, partial curve, poor fit]"
same,Potency,[4],inactive
same,Potency,[6],"inconclusive [inhibitor, partial curve]"
Cc1nc2ccccn2c1P(=O)(c1ccccc1)c1ccccc1,Potency,[1],inactive
same,Potency,[3],inactive
same,Potency,[6],inactive
Cn1cnc(-c2nccc3c(=O)[nH]c(OCCCC(F)(F)F)nc23)c1,Potency,[1],"inconclusive [inhibitor, partial curve]"
same,Potency,[3],"inconclusive [inhibitor, full curve, poor fit]"
same,Potency,[4],inactive
CN(Cc1ccc(C(=O)O)cc1)c1ccc(OCc2c(-c3c(Cl)cccc3Cl)noc2C2CC2)nc1C(F)(F)F,Potency,[1],"inconclusive [inhibitor, partial curve, poor fit]"
same,Potency,[2],"inconclusive [inhibitor, full curve]"
